The text below walks through data of patent publication US9603889B2, “IAP antagonists” (BRISTOL-MYERS SQUIBB COMPANY, priority 2012, dated 2017).

By IC50 is commonly meant the concentration that gives 50% inhibition.

Each structure is given as a SMILES string.

This test concerns the target XIAP BIR2 (His-BIR2 (124-240/C202A/C213G)) (Homo sapiens (Human), UniProt P98170, C202A/C213G). To be noted: read-out: XIAP-BIR2 AlphaScreen IC50; 50 nM His-BIR2 (124-240/C202A/C213G), 50 nM Biotinylated SMAC peptide. A general note: Alpha assays give light when donor and acceptor beads are brought close together.
On to `CN[C@@H](C)C(=O)N[C@H](C(=O)N1C[C@@H](NC(=O)c2ccc(CN(Cc3cccc(Cl)c3Cl)C(=O)[C@@H]3Cc4ccccc4CN3C(=O)[C@@H](NC(=O)[C@H](C)NC)C(C)(C)C)cc2)C[C@H]1C(=O)N[C@@H]1CCCc2ccccc21)C(C)(C)C` [Example 11, (S)-N-(2,3-Dichlorobenzyl)-2-((S)-3,3-dimethyl-2-((S)-2-(methylamino)propanamido)butanoyl)-N-(4-(((3S,5S)-1-((S)-3,3-dimethyl-2-((S)-2-(methylamino)propanamido)butanoyl)-5-(((R)-1,2,3,4-tetrahydro-naphthalen-1-yl)carbamoyl)pyrrolidin-3-yl)carbamoyl)benzyl)-1,2,3,4-tetra-hydroisoquinoline-3-carboxamide], for which the half-inhibitory concentration (IC50) worked out at 510 nM.

With `CCC[C@H](c1ccccc1)N(Cc1ccc(C(=O)N[C@H]2C[C@@H](C(=O)N[C@@H]3CCCc4ccccc43)N(C(=O)[C@@H](NC(=O)[C@H](C)NC)C(C)(C)C)C2)cc1)C(=O)[C@@H]1Cc2ccccc2CN1C(=O)[C@@H](NC(=O)[C@H](C)NC)C(C)(C)C` [Example 7, (S)-2-((S)-3,3-Dimethyl-2-((S)-2-(methylamino)propanamido)butanoyl)-N-(4-(((3S,5S)-1-((S)-3,3-dimethyl-2-((S)-2-(methylamino)propanamido)butanoyl)-5-(((R)-1,2,3,4-tetrahydronaphthalen-1-yl)carbamoyl)pyrrolidin-3-yl)carbamoyl)benzyl)-N-((R)-1-phenylbutyl)-1,2,3,4-tetrahydroisoquinoline-3-carboxamide], the IC50 came out at 1140 nM. The value for `CN[C@@H](C)C(=O)N[C@H](C(=O)N1CC(NC(=O)c2ccc(CN(C(=O)[C@@H]3Cc4ccccc4CN3C(=O)[C@@H](NC(=O)[C@H](C)NC)C(C)(C)C)C(C)c3ccccc3Cl)cc2)C[C@H]1C(=O)NC1CCCc2ccccc21)C(C)(C)C` (stereo partly drawn) [Example 26, (3S)-N-(1-(2-Chlorophenyl)ethyl)-2-((S)-3,3-dimethyl-2-((S)-2-(methylamino)propanamido)butanoyl)-N-(4-(((3S,5S)-1-((S)-3,3-dimethyl-2-((S)-2-(methylamino)propanamido)butanoyl)-5-(((R)-1,2,3,4-tetrahydro-naphthalen-1-yl)carbamoyl)pyrrolidin-3-yl)carbamoyl)benzyl)-1,2,3,4-tetra-hydroisoquinoline-3-carboxamide] was 100 nM; that for `CCOc1ccccc1[C@@H](C)N(Cc1ccc(C(=O)N[C@H]2C[C@@H](C(=O)N[C@@H]3CCCc4ccccc43)N(C(=O)[C@@H](NC(=O)[C@H](C)NC)C(C)(C)C)C2)cc1)C(=O)[C@@H]1Cc2ccccc2CN1C(=O)[C@@H](NC(=O)[C@H](C)NC)C(C)(C)C` [Example 29, (S)-2-((S)-3,3-Dimethyl-2-((S)-2-(methylamino)propanamido)butanoyl)-N-(4-(((3S,5S)-1-((S)-3,3-dimethyl-2-((S)-2-(methyl-amino)propanamido)butanoyl)-5-(((R)-1,2,3,4-tetra-hydronaphthalen-1-yl)carbamoyl)pyrrolidin-3-yl)carbamoyl)benzyl)-N-((R)-1-(2-ethoxyphenyl)ethyl)-1,2,3,4-tetrahydro-isoquinoline-3-carboxamide] was 340 nM. For the molecule `CN[C@@H](C)C(=O)N[C@H](C(=O)N1CCc2ccccc2[C@H]1C(=O)N(Cc1ccc(C(=O)N[C@H]2C[C@@H](C(=O)N[C@@H]3CCCc4ccccc43)N(C(=O)[C@@H](NC(=O)[C@H](C)NC)C(C)(C)C)C2)cc1)[C@H](C)Cc1ccccc1F)C(C)(C)C` [Example 27, (S)-2-((S)-3,3-Dimethyl-2-((S)-2-(methylamino)propanamido)butanoyl)-N-(4-(((3S,5S)-1-((S)-3,3-dimethyl-2-((S)-2-(methylamino)propanamido)butanoyl)-5-(((R)-1,2,3,4-tetrahydro-naphthalen-1-yl)carbamoyl)pyrrolidin-3-yl)carbamoyl)benzyl)-N-((R)-1-(2-fluorophenyl)propan-2-yl)-1,2,3,4-tetrahydro-isoquinoline-1-carboxamide], the IC50 was 1740 nM.
